Data on 18 compounds can be found in PubChem BioAssay (NCATS).

This assay in a line: qHTS Assay for Lipid Storage Modulators (AID 1519). To be noted: Drosophila S3 cells, BODIPY lipid droplet/cell ratio, laser cytometry, cells loaded with oleic acid. In a few lines:
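Cells seeded at 5,000 per well were treated with compounds over a concentration series and loaded with oleic acid (400 uM, as added). Lipid droplet fluorescence (488 nm excitation, 500-530 nm channel) was read by laser-scanning cytometry and normalized to 20 uM Triacsin C.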

[1] abbreviates: measured here: cell count channel max response.
Where [2] appears, read: measured here: cell number channel AC50.
[3] abbreviates: measured here: lipid (BODIPY) channel AC50.
Setting [4] is: measured here: lipid channel max response.

The list shows a part of the results. Further columns of the screen follow, without active or inactive calls. Compounds called inactive in the main read-out are mostly missing here. The note in brackets gives the kind of curve behind each potency; many fits are weak.
Tags tell the direction and shape of the fitted curve.

`Cc1nc2cnc(OCc3ccccc3)nc2n(Cc2ccc(F)cc2)c1=O`: the max response reads like this: under setting [1], 22.9%; under setting [4], 36.8%. Moreover, the concentration at half-maximal activity (AC50) (usually the concentration at which the activity in the assay is half-maximal) by setting is: under setting [2], 3.16 µM [rising, partial curve, poor fit]; under setting [3], 0.0158 µM [rising, full curve, poor fit].
Take `COc1ccc2[nH]cc(CCNc3ncncc3-c3cccnc3)c2c1`: the max response is 22.8% under setting [1] and 26.7% under setting [4]. Also, the AC50 under setting [2] was 0.112 µM [rising, full curve, poor fit] and the AC50 under setting [3] is 0.112 µM [rising, full curve, poor fit].
For `CN(C)c1ncc2nc(-c3ccc(Cl)cc3)c(=O)n(Cc3ccc(F)cc3)c2n1`, the max response worked out at 38.1% under setting [1] and 45.7% under setting [4]. In addition, the AC50 is 3.16 µM [rising, full curve] under setting [2] and 2.82 µM [rising, full curve] under setting [3].
Regarding `COc1cc(OC)c2c(c1)OC(c1ccccc1)CC2=O` (configuration not stated), the max response is 96.3% under setting [1] and 130% under setting [4]. The concentration at half-maximal activity (AC50) runs as follows: under setting [2], 4.47 µM [rising, full curve]; under setting [3], 4.47 µM [rising, full curve].
For the compound `COC(=O)C1=C(C)NC(C)=C([N+](=O)[O-])[C@@H]1c1ccccc1C(F)(F)F`, the max response is, setting by setting: under setting [1], 75.8%; under setting [4], 92.7%. Moreover, the concentration at half-maximal activity (AC50) is 4.47 µM [rising, full curve] under setting [2] and 3.98 µM [rising, full curve] under setting [3].
In the case of `O=[N+]([O-])c1ccc2cn[nH]c2c1`, the max response is, setting by setting: under setting [1], 35.2%; under setting [4], 43.2%. For the same compound, the AC50 is 15.8 µM [rising, partial curve, poor fit] under setting [2] and 25.1 µM [rising, partial curve, poor fit] under setting [3].
As for `O=C(c1cccc(F)c1)N1CCC2(CCCN(Cc3cc(C(F)(F)F)cc(C(F)(F)F)c3)C2)CC1`, the max response was 20.2% under setting [1] and 4.92% under setting [4]. The half-maximal activity concentration (AC50) was 2.51 µM [rising, partial curve, poor fit] under setting [2] and 0.316 µM [rising, partial curve] under setting [3].
Turning to `COc1ccc(CNc2ccnc(-c3ccc(N(C)C)cc3)n2)c(OC)c1`, the max response by setting is: under setting [1], 22%; under setting [4], 24.1%. Moreover, the AC50 under setting [2] was 2.51 µM [rising, partial curve] and the AC50 under setting [3] is 1.78 µM [rising, full curve].
For `CCC(C)(C)N=C(NC#N)Nc1cccnc1`, the max response under setting [1] was found to be 39% and the max response under setting [4] amounted to 55.1%. The concentration at half-maximal activity (AC50) was 11.2 µM [rising, partial curve, poor fit] under setting [2] and 14.1 µM [rising, partial curve, poor fit] under setting [3].
`C=CC1=C(C)C2=Cc3c(C=C)c(C)c4[n]3[Sn+2][n]3c(c(C)c(CCC(=O)O)c3=CC3=NC(=C4)C(C)=C3CCC(=O)O)=CC1=N2`: the max response under setting [1] worked out at 61% and the max response under setting [4] amounted to 81.4%. The AC50 is 0.158 µM [rising, full curve, poor fit] under setting [2] and 0.158 µM [rising, full curve, poor fit] under setting [3].
For `COc1ccc2[nH]cc(CCNc3ncncc3-c3cccc(NS(C)(=O)=O)c3)c2c1`, the max response came out at 39.2% under setting [1] and 47% under setting [4]. In addition, the AC50 is 3.16 µM [rising, partial curve] under setting [2] and 2 µM [rising, full curve] under setting [3].
For the compound `CC[C@]12CCCN3CCc4c(n(c5ccccc45)C(=O)C1)[C@H]32`, the max response reads like this: under setting [1], 64.8%; under setting [4], 82%. The AC50 under setting [2] was 15.8 µM [rising, partial curve, poor fit] and the AC50 under setting [3] is 14.1 µM [rising, partial curve, poor fit].
For `O=C(c1c(O)c2ccc(Cl)cc2[nH]c1=O)C1CC1`, the max response reads like this: under setting [1], 85.5%; under setting [4], 115%. Also, the concentration at half-maximal activity (AC50) is, setting by setting: under setting [2], 15.8 µM [rising, partial curve, poor fit]; under setting [3], 17.8 µM [rising, partial curve].
Regarding `c1nc(NC2CC2)c2cc(-c3ccoc3)ccc2n1`, the max response is, setting by setting: under setting [1], 39.5%; under setting [4], 46.5%. For the same compound, the AC50 reads like this: under setting [2], 3.55 µM [rising, full curve]; under setting [3], 3.55 µM [rising, full curve].
Regarding `CN(C)Cc1ccccc1-c1ccc2ncnc(NC3CCNCC3)c2c1`, the max response reads like this: under setting [1], 31%; under setting [4], 44.5%. The half-maximal activity concentration (AC50) under setting [2] is 39.8 µM [rising, single point] and the AC50 under setting [3] was 39.8 µM [rising, single point].
Regarding `Cc1cc(NC(=O)Nc2ccc(N(C)C)cc2)c2cc(F)cc(F)c2n1`, the max response was -45.7% under setting [1] and -38.8% under setting [4]. In addition, the AC50 under setting [2] is 1.12 µM [rising, full curve] and the AC50 under setting [3] is 1 µM [rising, full curve].
As to `CN(C)c1ccc(-c2ccc3ncnc(NC4CC4)c3c2)cc1`, the max response under setting [1] was -2.1% and the max response under setting [4] is -2.99%. In addition, the AC50 by setting is: under setting [2], 0.02 µM [rising, full curve]; under setting [3], 0.02 µM [rising, full curve].
For `COc1cccc(Cn2c(=O)c(CCc3ccccc3)nc3cnc(N4CCOCC4)nc32)c1`, the max response is 46.4% under setting [1] and 55.6% under setting [4]. The concentration at half-maximal activity (AC50) reads like this: under setting [2], 3.98 µM [rising, full curve]; under setting [3], 3.55 µM [rising, full curve].
